From PubChem BioAssay AID1508624 (National Center for Advancing Translational Sciences (NCATS), 2021)
Out of some 48,000 compounds screened, about 120 (0.25%) were called active. Another 4% or so got no clear call; they are omitted. Calls come from the whole dose curve; as a rule, active = well fitted activation curve with a large enough effect; inconclusive = small, poorly fitted or top-dose-only effect, or another doubt; inactive = no such curve, though single readings can be large or run the other way. Some of the results follow.

Experiment: Primary qHTS for Identification of Small Molecule Activators of Huntingtin-Antisense Promoter Activity; note: nearly all actives have a fitted effect of over 55% in size
Details: HEK293 HTT-AS promoter firefly luciferase reporter, 24 h; series mostly up to 57.5 µM; activity change, positive = activation: at the top concentration
Outline: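 Firefly luciferase readout (Dual-Glo, 10 min RT) after 24 h, 37 °C compound exposure (final up to 57.5 uM) of HEK293 reporter cells cultured 24 h beforehand; PTC124 at 50 uM final as control inhibitor; activity scaled vehicle 0%, zero RLU -100%.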

Activity change, positive = activation, inactive:
Cc1nn(-c2ccccc2)c(OC(=O)c2ccc(Cl)cc2)c1S(=O)(=O)c1ccccc1 -10.8%
COc1ccc(CNS(=O)(=O)c2cc3c(cc2Cl)NC(=O)CO3)cc1 -14.1%
CCC(=O)Oc1c(Sc2ccc(C)cc2)c(C)nn1-c1ccccc1 -18.3%
O=C(c1cc(-c2ccc(Br)cc2)n[nH]1)N1CCN(S(=O)(=O)c2ccc(Cl)s2)CC1 -15.8%
COCCCn1c(SCC(=O)Nc2ccc(OC)cc2)nc2c(sc3ccccc32)c1=O -5.65%
O=C(CSc1nc(=O)n(CCN2CCOCC2)c2c1CCC2)Nc1ccc(F)cc1F -0.355%
CC(C)CC(=O)Nc1ccc2nc(SCC(=O)N3CCOCC3)sc2c1 -26.1%
COC(=O)c1ccccc1NC(=O)c1ccc2c(c1)CCN2S(=O)(=O)c1ccc(Cl)cc1 15.5%
Cc1cc(C)c(S(=O)(=O)NCC2CCC(C(=O)NCCc3ccccc3)CC2)c(C)c1 (stereo not drawn) -13.5%
Cc1ccc(-c2c3c(=O)n(C)c(=O)n(C)c3c3c(-c4cccc(C)c4)nc4ccccc4n23)cc1 9.19% [at 11.5 µM, percent change from vehicle, -100% = no light]
Cc1ccc(C)c(Cn2c3ccccc3c3cnn(CC(=O)NC4CCCCCC4)c(=O)c32)c1 3.86%
Cc1c(Cl)cccc1NC(=O)CSc1nc(=O)[nH]c2c1CCC2 -16.2%
Cc1c2cnn(-c3ccccc3)c(=O)c2c(C)n1CCCC(=O)Nc1cccc(F)c1 -5.44%
O=c1n(Cc2ccccc2)nc2n1-c1cc(Cl)ccc1OC2 -3.15%
COc1ccc(-c2cc(OC(=O)c3cccc(Cl)c3)c3c(C)oc(C)c3c(=O)c2)cc1OC -24%
COc1ccc(CN(Cc2ccco2)C(=O)COc2ccccc2Cl)cc1 -16%
CC(NS(=O)(=O)c1ccc2c(c1)CCN2C(=O)CCCC(=O)O)c1ccccc1 (stereo not drawn) 1.02%
COC1=CC(=O)C[C@@H](C)[C@]12Oc1c(Cl)c(OC)cc(OC)c1C2=O -26%
COc1cc(OC)cc(C(=O)N2CCN(C(=O)COc3ccc(C)cc3)CC2)c1 2.9%
COc1cccc(-n2c(SCC(=O)Nc3ccc4c(c3)OCO4)nc3c([nH]c4ccccc43)c2=O)c1 -18.4%
CCN(CC)c1ccc(NC(=O)Cn2nc3c(cc2=O)CCCC3)c(C)c1 -17.5%
CCc1c(C)sc(NC(=O)c2cc3nc(-c4ccc(OC)cc4)cc(C(F)(F)F)n3n2)c1C(=O)OC -1.64%
CCC(=O)NCC[C@@H]1CCc2ccc3c(c21)CCO3 12.2%
Cc1ccccc1NC(=O)CSc1nc(-c2cccs2)nc2cc(=O)[nH]n12 -14%
COc1ccc(-n2nc(C(=O)Nc3cc(C)c(Cl)cc3OC)c3c4ccccc4n(C)c3c2=O)cc1 -7.95%
COc1cc(C2c3c(-c4cc(C)ccc4O)n[nH]c3C(=O)N2Cc2ccco2)cc(OC)c1OC (stereo not drawn) -13.5%
COC(=O)CSc1nc2sc3c(c2c(=O)n1-c1ccccc1)C(C)CCC3 (stereo not drawn) 1.44%
O=C(Cn1cc(SCc2ccc(Cl)cc2)c2ccccc21)N1CCOCC1 13.2%
CCCc1nn2c(=O)cc(COC(=O)c3cccc(NC(=O)c4ccc(OCC)cc4)c3)nc2s1 -15.4%
COc1ccc(NC(=O)c2cc(S(=O)(=O)N3CCCC(C)C3)cn2C)c(OC)c1 (stereo not drawn) -19.9%
COc1ccc(NC(=O)CSc2nc3ccccc3n2CC(=O)N(C)C2CCCCC2)cc1 7.42%
Cc1cc(Cl)ccc1NS(=O)(=O)c1c(C(=O)N2CCCCCC2)c(C)n(C)c1C -17.7%
Cc1ccc(-c2nc3sc(CCNC(=O)c4ccc(F)c(F)c4)c(C)n3n2)cc1 -6.96%
CC1=C(C(=O)Nc2ccccc2Br)C2(CCC(C)CC2)OC1=O (stereo not drawn) -21.5%
CCCCC12CN3CC(C)(CN(C1)C3c1ccc(OCc3ccccc3)cc1)C2=O (stereo not drawn) 15.5%
O=C(C1CCN(S(=O)(=O)c2cccs2)CC1)N1CCN(c2ccccc2F)CC1 -19.6%
Cc1ccc(CNC(=O)CCCCCn2c(=O)c3sccc3n(CC(=O)N3CCCCC3C)c2=O)cc1 (stereo not drawn) 8.28%
FC(F)(F)c1cccc(Nc2nc3nonc3nc2Nc2ccc(Cl)cc2)c1 -93.5%
Cc1ccccc1NC(=O)c1c(C)oc2ccc(O)c(CN3CCCCCC3)c12 -36.4%
CCC(CC)C(=O)Nc1ccc(S(=O)(=O)N2CCC(c3nc4ccccc4s3)CC2)cc1 -19.6%
Cc1nc(-c2ccc(S(=O)(=O)N3CCN(c4ccccc4F)CC3)cc2)co1 -29.9%
Cc1ccccc1NC(=O)c1sc2nc(-c3cc4ccccc4oc3=O)[nH]c(=O)c2c1C -9.1%
CNC(=O)c1c(I)c(NC(C)=O)c(I)c(C(=O)O)c1I 0.746%
CCN(C(=O)Cn1c(C(=O)OC)cc2sccc21)c1cccc(C)c1 -14.2%
CCCn1cc(S(=O)(=O)c2ccc(C)c(C)c2)c(=O)c2cc(F)c(N3CCCCC3)cc21 -8.1%
CC(C)NC(=O)c1ccc(CSc2nc3ccncc3n2Cc2cccc(F)c2)cc1 -6.1%
CC(C)c1ccc(C2CC(=O)N3CN(C4CCCCC4)CSC3=C2C#N)cc1 (stereo not drawn) -23%
CCCCN(CCCC)CCCNC(=O)c1cc(-c2ccc(Cl)s2)nc2ccccc12 -11.1%
Cn1ccc2cc(S(=O)(=O)N3CCCC(C(=O)NCc4ccccc4F)C3)ccc21 (stereo not drawn) -25.6%
Cc1ccccc1-c1nc(CNC(=O)NC2CCCCC2)c(C)o1 -8.63%
CC1=C(C(=O)Nc2ccccc2)C(c2ccc(Br)cc2)n2nc(CCCO)nc2N1 (stereo not drawn) 4.02%
COc1ccc(-n2ncc3c2ncn2nc(-c4ccc(OC)c(OC)c4)nc32)cc1 -9.25%
COc1ccccc1N1CCN(C(=O)c2nn(C)c3c2CS(=O)(=O)c2ccccc2-3)CC1 -4.72%
COc1cccc(CNC(=O)CN2C(=O)COc3ccc(S(=O)(=O)N4CCCCC4)cc32)c1 -25.3%
CCn1cc2nc(SCc3cc(C)ccc3C)n(Cc3ccc(Cl)cc3)c(=O)c2n1 18%
CCN(CC)c1ccc(CN(C(=O)c2cc(=O)c3ccccc3o2)C2CCS(=O)(=O)C2)cc1 (stereo not drawn) -15%
C=CC(=O)N1CCc2ccc(-n3c(=O)ccc4cnc5ccc(-c6cnn(C)c6)cc5c43)cc21 -35.6%
Cn1cc(S(=O)(=O)N2CCCC2)cc1C(=O)Nc1ccc(F)cc1F -14.8%
CCOC(=O)c1ccc(NC(=O)Cc2noc3ccc(C)cc23)cc1 8.87%
O=C(CSc1nc2c([nH]c3ccccc32)c(=O)n1-c1ccccc1)N1CCCCC1 -5.3%
CC(C)CCNC(=O)c1cc(-c2cccnc2)nc2ccc(S(=O)(=O)N3CCC(C)CC3)cc12 -6.89%
COc1ccc(NC(=O)c2nnn(-c3ccc(C(C)C)cc3)c2C)c(OC)c1 1.23%
CCCCC1=NC2(CCCC2)C(=O)N1Cc1ccc(-c2ccccc2-c2nn[nH]n2)cc1 -10.8%
COc1ccc(OC)c(-c2noc(N3CCN(c4cccc(C(F)(F)F)c4)CC3)n2)c1 -26.3%
Cc1cccc(-n2c3nc(=O)[nH]c(=O)c-3cc3ccc(Cl)cc32)c1C -44.2%
Cn1c(CN2CCOCC2)nc2cc(NC(=O)c3ccccc3[N+](=O)[O-])ccc21 -15.4%
CCOc1cccc2sc(N3CCN(C(=O)c4ccco4)CC3)nc12 -4.86%
COc1cc(OC)c(NC(=O)c2ccc(-n3cnc4cccnc43)cc2)cc1Cl -16.6%
O=C(NCCCN1CCN(c2ccc(F)cc2)CC1)Nc1ccccc1Cl -17.1%
CC(=O)Nc1cccc(NC(=O)CSc2nccn2Cc2ccccc2)c1 -15.9%
CC1=C(c2ccc(C(C)C)cc2)S(=O)(=O)N=C1N1CCC(C(=O)NCc2ccc(C)o2)CC1 -11%
O=C(NC1CCCCC1)c1ccc(CSc2nc3cccnc3n2Cc2ccccc2)cc1 -25.3%
Cc1ccccc1-c1noc(-c2ccc(NCc3cccnc3)c([N+](=O)[O-])c2)n1 -16.3%
Cc1c(CC(=O)NCCc2ccccc2)c(=O)oc2c(C)c3occ(C(C)(C)C)c3cc12 -8.6%
CC(=O)c1cccc(NC(=O)Cn2ccn3nc(-c4ccccc4)cc3c2=O)c1 2.97%
Cc1cc(Nc2cc(Cl)ccc2C)n2nc(-c3ccccc3)nc2n1 -40.5%
CCOC(=O)c1c(N)n(-c2ccc(OCC)cc2)c2nc3ccccc3nc12 0.0925%
Cc1ccc(CN(Cc2cccn2-c2nnc(N3CCCC3=O)s2)C(=O)Nc2ccccc2Cl)cc1 -20.7%
O=C(COc1ccccc1-c1nc(-c2ccccc2)no1)Nc1ccc([N+](=O)[O-])cc1 -9.21%
Cc1cc(C)c2c(NC(=O)c3ccccc3Cl)c(C(=O)NCc3ccc(Cl)cc3)sc2n1 -39.9%
Cc1nc2c(-c3ccc(F)cc3)c(C)nn2c(C)c1CCC(=O)NCc1ccc(F)cc1 -10.9%
COc1ccc(OCCCn2c(C3CC(=O)N(c4ccc(F)cc4)C3)nc3ccccc32)cc1 (stereo not drawn) -26.7%
CCOC(=O)c1c(C)[nH]c(CCC(=O)NCc2ccc(OC)cc2OC)c1C -19.3%
COc1ccc(NC(=O)c2cc3c(=O)n(Cc4cccs4)ccc3nc2C)cc1 -11.1%
COc1ccc(-n2c(C)nnc2SCc2nc(-c3ccc(OC)c(OC)c3)no2)cc1 -17.4%
COc1ccc(OC)c(NC(=O)Cn2c(=O)n(-c3cccc(C)c3)c(=O)c3c2c2cc(C)ccc2n3C)c1 -14.8%
CCOC(=O)c1c(C)oc2nc(C)nc(N3CCN(c4cc(Cl)ccc4C)CC3)c12 -29.8%
CCOC(=O)c1cc(OC(=O)c2cc(OC)c(OC)c(OC)c2)n(-c2ccccc2)n1 -16.3%
CCOc1ccc(-n2c(SCC(=O)Nc3cc(C)on3)nc3c([nH]c4ccccc43)c2=O)cc1 -33.9%
CCc1ccccc1N(C)C(=O)Cn1cnc2sc(C)c(S(=O)(=O)N3CCC(C)CC3)c2c1=O 15.3%
COc1cccc(CNC(=O)CCCn2nc(C)c3sc4ccccc4c3c2=O)c1 -1.77%
CCn1c(C(=O)Nc2c(C)cccc2C)cc2sc(Cl)cc21 -11.6%
COc1cccc(NC(=O)N(Cc2c[nH]c3ccccc23)C2CCCCCC2)c1 -13%
